The record followed here is the supplement of paper PMC10369915.

B1: ROA2_HUMAN_347_YA (peptide)
chain: GSGGSGGYGGRSRAG
B2: RERE_HUMAN_1259 (peptide)
chain: ALRTLSEYARPHVMS
B3: RET_HUMAN_905 (peptide)
chain: DVYEEDSYVKRSQGR
B4: RBM39_HUMAN_95 (peptide)
chain: DRRFRGRYRSPYSGP
B5: RET_HUMAN_1090 (peptide)
chain: TNTGFPRYPNDSVYA
B6: RET_HUMAN_1015 (peptide)
chain: MMVKRRDYLDLAAST
B7: RBM3_HUMAN_155_YA (peptide)
chain: GGNARDNYDNGGGGG
B8: RFC1_HUMAN_67 (peptide)
chain: SKKKRIIYDSDSESE
B9: ROA3_HUMAN_373 (peptide)
chain: SGGGSGGYGSRRFGG
B10: RIPK2_HUMAN_381 (peptide)
chain: SRKAQDCYFMKLHHC
B11: RAPH1_HUMAN_456_YA (peptide)
chain: NVAAGQDYRNKAKAP
B12: RON_HUMAN_1360 (peptide)
chain: YVQLPATYMNLGPST
B13: RON_HUMAN_1239_YA (peptide)
chain: DILDREAYSVQQHRH
B14: ATG2B_HUMAN_1012 (peptide)
chain: AFKSAVHYDEESGSE
B15: RIOK2_HUMAN_445 (peptide)
chain: VPAGSDEYEDECPHL
B16: ROR2_HUMAN_646 (peptide)
chain: EVYAADYYKLLGNSL
B17: ATP4A_HUMAN_10 (peptide)
chain: KAENYELYSVELGPG
B18: ROBO1_HUMAN_1038 (peptide)
chain: MLPESTVYGDVDLSN

Some of the results follow. Rule as the data show it: active = 3.2 or more and inactive = the rest. Most of these values are background signal.
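Also: displayed peptides selected on beads carrying the immobilized SH2 domain, with library peptides lacking any tyrosine serving as negative controls.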

One assay addresses SHP2 C-SH2 domain E139D. In words: enrichment score (SH2-bound / input frequency) (ratio); bacterial display of known human phosphotyrosine sites (pTyr-Var adds point mutants) read by sequencing; higher = stronger binding; tyrosines were phosphorylated by kinases first. The settings on record: peptide library: Human pTyr.
B1: the enrichment score was inactive: 0.579.

As for B2, the enrichment score was inactive: 1.24.

For B3, the enrichment score is inactive: 0.764.

For the molecule B4, the enrichment score is inactive: 0.743.

With B5, the enrichment score was inactive: 0.589.

For the molecule B6, the enrichment score was inactive: 0.808.

Take B7: the enrichment score was inactive: 0.747.

In the case of B8, the enrichment score is inactive: 0.79.

For B9, the enrichment score was inactive: 0.679.

Consider B10, for which the enrichment score is inactive: 1.84.

Take B11: the enrichment score is inactive: 0.763.

With B12, the enrichment score is inactive: 0.906.

On to B13, for which the enrichment score was inactive: 0.783.

Take B14: the enrichment score was inactive: 0.872.

As to B15, the enrichment score was inactive: 1.1.

With B16, the enrichment score is inactive: 0.906.

With B17, the enrichment score was inactive: 0.933.

Turning to B18, the enrichment score was inactive: 0.579.

The target in a further assay is SHP2 C-SH2 domain wild-type. The assay is described as above. To be noted: peptide library: Human pTyr.
Take B1: the enrichment score is inactive: 0.634.

For B2, the enrichment score is inactive: 1.03.

In the case of B3, the enrichment score is inactive: 0.59.

B4: the enrichment score was inactive: 0.459.

For the molecule B5, the enrichment score is inactive: 0.56.

For the molecule B6, the enrichment score is inactive: 0.666.

With B7, the enrichment score was inactive: 0.614.

As to B8, the enrichment score is inactive: 0.665.

As for B9, the enrichment score is inactive: 0.542.

B10: the enrichment score is inactive: 1.94.

Consider B11, for which the enrichment score was inactive: 0.834.

On to B12, for which the enrichment score is inactive: 1.39.

B13: the enrichment score was inactive: 0.547.

Regarding B14, the enrichment score is inactive: 0.825.

For the molecule B15, the enrichment score is inactive: 0.771.

Consider B16, for which the enrichment score was inactive: 0.653.

As to B17, the enrichment score is inactive: 0.751.

For B18, the enrichment score was inactive: 0.662.

Another assay has as its target SHP2 N-SH2 domain L43F. Described as above. The settings on record: peptide library: Human pTyr.
Take B1: the enrichment score is inactive: 0.571.

On to B2, for which the enrichment score is inactive: 1.2.

Consider B3, for which the enrichment score is inactive: 0.698.

With B4, the enrichment score is inactive: 0.703.

For the molecule B5, the enrichment score was inactive: 0.662.

Take B6: the enrichment score is inactive: 0.786.

With B7, the enrichment score is inactive: 0.662.

In the case of B8, the enrichment score is inactive: 0.842.

As to B9, the enrichment score is inactive: 0.612.

Turning to B10, the enrichment score is inactive: 1.74.

As for B11, the enrichment score was inactive: 0.705.

Turning to B12, the enrichment score was inactive: 0.913.

Consider B13, for which the enrichment score was inactive: 0.669.

For B14, the enrichment score was inactive: 0.908.

As for B15, the enrichment score was inactive: 1.

Regarding B16, the enrichment score was inactive: 0.725.

Turning to B17, the enrichment score was inactive: 0.651.

Consider B18, for which the enrichment score is inactive: 0.611.

Another assay addresses SHP2 N-SH2 domain T42A. The description is as above. To be noted: peptide library: Human pTyr.
Take B1: the enrichment score is inactive: 0.518.

For B2, the enrichment score was inactive: 1.14.

Regarding B3, the enrichment score is inactive: 0.657.

Turning to B4, the enrichment score is inactive: 0.599.

In the case of B5, the enrichment score is inactive: 0.604.

As for B6, the enrichment score was inactive: 0.764.

Regarding B7, the enrichment score was inactive: 0.569.

Turning to B8, the enrichment score is inactive: 0.572.

In the case of B9, the enrichment score was inactive: 0.716.

As for B10, the enrichment score was inactive: 1.92.

As to B11, the enrichment score was inactive: 0.87.

Regarding B12, the enrichment score is inactive: 1.1.

In the case of B13, the enrichment score was inactive: 0.668.

Turning to B14, the enrichment score was inactive: 0.844.

As to B15, the enrichment score was inactive: 0.988.

For B16, the enrichment score was inactive: 0.791.

Consider B17, for which the enrichment score is inactive: 0.606.

For B18, the enrichment score was inactive: 0.568.

The target of another assay is SHP2 N-SH2 domain T52S. The description is as above. The settings on record: peptide library: Human pTyr.
Consider B1, for which the enrichment score is inactive: 0.974.

With B2, the enrichment score is inactive: 1.05.

For the molecule B3, the enrichment score is inactive: 0.707.

Regarding B4, the enrichment score was inactive: 0.662.

As for B5, the enrichment score is inactive: 0.686.

On to B6, for which the enrichment score was inactive: 1.13.

B7: the enrichment score was inactive: 0.671.

As for B8, the enrichment score is inactive: 0.551.

With B9, the enrichment score was inactive: 0.546.

B10: the enrichment score is inactive: 2.1.

In the case of B11, the enrichment score is inactive: 1.15.

In the case of B12, the enrichment score was inactive: 1.02.

On to B13, for which the enrichment score was inactive: 0.581.

Turning to B14, the enrichment score is inactive: 0.963.

With B15, the enrichment score was inactive: 1.02.

Consider B16, for which the enrichment score was inactive: 0.882.

As for B17, the enrichment score was inactive: 0.794.

In the case of B18, the enrichment score is inactive: 0.52.

The next assay concerns the target SHP2 N-SH2 domain wild-type. The description is as above. The settings on record: peptide library: Human pTyr.
On to B1, for which the enrichment score was inactive: 0.856.

With B2, the enrichment score is inactive: 1.44.

In the case of B3, the enrichment score was inactive: 0.734.

For the molecule B4, the enrichment score was inactive: 0.652.

For B5, the enrichment score was inactive: 0.651.

As to B6, the enrichment score was inactive: 0.707.

Consider B7, for which the enrichment score was inactive: 0.625.

For B8, the enrichment score was inactive: 0.641.

On to B9, for which the enrichment score was inactive: 0.522.

As to B10, the enrichment score was inactive: 2.86.

With B11, the enrichment score was inactive: 0.759.

Turning to B12, the enrichment score is inactive: 1.16.

Turning to B13, the enrichment score was inactive: 0.603.

Turning to B14, the enrichment score was inactive: 0.823.

With B15, the enrichment score was inactive: 1.06.

For the molecule B16, the enrichment score is inactive: 0.842.

For B17, the enrichment score is inactive: 1.01.

Turning to B18, the enrichment score was inactive: 0.734.
